Laboratory results: PubChem BioAssay AID2528 (National Center for Advancing Translational Sciences (NCATS), 2010)
Values joined by “and” are separate entries in the source; they are usually repeats but may differ in a detail not shown here. Equal entries are not always repeated. In all, about 350,000 compounds went through this assay and about 700 (0.2%) were called active. Calls come from the whole dose curve; as a rule, active = well fitted inhibition curve with a large enough effect; inconclusive = small, poorly fitted or top-dose-only effect; inactive = flat fitted curve, though single readings scatter. The list shows a part of the results, in another mix than the full data. The source holds several records for some structures; these can differ, active in one and inactive in another.

Molecular target: RecQ-like DNA helicase BLM (Homo sapiens) (UniProt P54132)
Chain of UniProt P54132 (P54132 whole entry, looked up): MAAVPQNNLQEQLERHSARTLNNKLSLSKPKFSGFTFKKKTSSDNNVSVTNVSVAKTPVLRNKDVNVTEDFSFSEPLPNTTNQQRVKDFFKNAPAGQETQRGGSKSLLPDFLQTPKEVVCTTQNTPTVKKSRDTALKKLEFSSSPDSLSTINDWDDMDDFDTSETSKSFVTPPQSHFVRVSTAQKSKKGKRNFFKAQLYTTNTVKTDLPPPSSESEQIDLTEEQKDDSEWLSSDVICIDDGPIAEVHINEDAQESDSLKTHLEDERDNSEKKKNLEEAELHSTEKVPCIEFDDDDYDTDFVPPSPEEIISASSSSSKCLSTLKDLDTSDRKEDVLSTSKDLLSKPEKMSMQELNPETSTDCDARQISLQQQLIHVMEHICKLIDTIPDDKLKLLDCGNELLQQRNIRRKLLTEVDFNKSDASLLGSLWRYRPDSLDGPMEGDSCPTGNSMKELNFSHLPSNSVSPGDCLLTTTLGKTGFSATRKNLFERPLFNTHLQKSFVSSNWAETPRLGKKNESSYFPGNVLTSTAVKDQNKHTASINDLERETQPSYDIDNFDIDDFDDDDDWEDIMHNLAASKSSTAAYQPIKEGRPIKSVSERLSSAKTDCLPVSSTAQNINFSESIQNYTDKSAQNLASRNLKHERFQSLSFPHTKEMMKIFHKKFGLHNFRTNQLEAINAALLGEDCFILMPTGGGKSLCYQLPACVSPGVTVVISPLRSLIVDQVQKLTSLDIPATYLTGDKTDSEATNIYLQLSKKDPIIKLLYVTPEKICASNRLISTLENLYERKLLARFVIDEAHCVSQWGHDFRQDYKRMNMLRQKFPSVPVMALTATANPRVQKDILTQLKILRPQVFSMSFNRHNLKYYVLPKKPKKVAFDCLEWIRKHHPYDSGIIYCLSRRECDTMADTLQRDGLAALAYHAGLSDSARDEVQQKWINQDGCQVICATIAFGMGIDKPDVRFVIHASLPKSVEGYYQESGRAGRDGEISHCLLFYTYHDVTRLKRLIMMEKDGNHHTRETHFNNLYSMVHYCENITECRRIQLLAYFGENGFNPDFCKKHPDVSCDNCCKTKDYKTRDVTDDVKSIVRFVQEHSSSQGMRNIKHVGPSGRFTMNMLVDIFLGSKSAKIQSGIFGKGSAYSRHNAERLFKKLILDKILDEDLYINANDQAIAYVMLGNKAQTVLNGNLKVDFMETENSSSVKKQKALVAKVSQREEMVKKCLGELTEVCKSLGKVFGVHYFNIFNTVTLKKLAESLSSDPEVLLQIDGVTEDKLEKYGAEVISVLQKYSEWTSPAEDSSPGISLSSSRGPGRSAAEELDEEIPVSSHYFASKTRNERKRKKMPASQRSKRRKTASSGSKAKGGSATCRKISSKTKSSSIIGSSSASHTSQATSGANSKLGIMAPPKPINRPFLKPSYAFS
Experiment: qHTS Assay for Inhibitors of Bloom's syndrome helicase (BLM); note: nearly all actives have a fitted effect of over 35% in size;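 for activity change, negative = inhibition: plate controls were vehicle for no effect and no enzyme for full effect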
Settings: recombinant BLM DNA unwinding, fluorescence dequenching; series mostly up to 56.1 µM; activity change, negative = inhibition: at the top concentration
Potency is the fitted concentration of half-maximal effect.

Structure (SMILES) | activity change, negative = inhibition | Potency
Oc1cc2c(cc1O)[C@H](c1ccccc1)CNCC2 | inactive: 0.966% | 
CC#C[C@]1(O)CC[C@H]2[C@@H]3CCC4=CC(=O)CCC4=C3[C@H](c3ccc(N(C)C)cc3)C[C@@]21C | inactive: -11.1% | 
Cc1ccc([N+](=O)[O-])cc1S(=O)(=O)N(C)C |  | inactive
Fc1cccc(/C=N\N=C/c2cccc(F)c2)c1 | inactive: -0.519% | 
O=C(OC1Cc2c(O)cc(O)cc2OC1c1cc(O)c(O)c(O)c1-c1c(C2Oc3cc(O)cc(O)c3CC2O)cc(O)c(O)c1O)c1cc(O)c(O)c(O)c1 (configuration not stated) |  | active: 6.31 µM
COc1ccc(-n2cccc2/C=C2\C(=N)N3N=C(c4ccco4)SC3=NC2=O)cc1 |  | active: 12.6 µM
CNCC(O)c1cccc(O)c1 (configuration not stated) | inactive: -11.4% | 
Oc1ccc(N=Cc2ccc(OCc3ccccc3)cc2)cc1 |  | active: 31.6 µM
CC(C)(C)[C@]1(O)CCN2C[C@H]3c4ccccc4CCc4cccc(c43)[C@@H]2C1 | inactive: -8.58% | 
CCn1c(SCC(N)=O)nc2sc3c(c2c1=O)CCN(C)C3 |  | active: 0.708 µM
CC(C)NC[C@H](O)c1cc(O)cc(O)c1 | inactive: 3.08% [at 21.4 µM] | 
CC(=O)O[C@H]1C(=O)[C@@]2(C)[C@H]([C@H](OC(=O)c3ccccc3)[C@]3(O)C[C@H](OC(=O)[C@H](O)C(NC(=O)c4ccccc4)c4ccccc4)C(C)=C1C3(C)C)[C@]1(OC(C)=O)CO[C@@H]1C[C@@H]2O (some centres not stated) | inactive: -8.6% | 
CCc1cccc2c3c([nH]c12)[C@@](CC)(CC(=O)O)OCC3 | inactive: -4.29% [at 21.4 µM] | 
CN(C)C1C(=O)C(C(N)=O)=C(O)[C@@]2(O)C(=O)C3=C(O)c4c(O)ccc(Cl)c4C(O)[C@H]3C[C@@H]12 (some centres not stated) | inactive: -12.9% | 
O=C(O)C1=CCCNC1 |  | inactive
Cc1cc(C)c(/C=C2\C(=O)Nc3ccccc32)[nH]1 |  | inactive
Cc1ccc(-c2nc3c(c(SCC(=O)Nc4cccc(C(=O)O)c4)n2)Cc2cccc(C)c2O3)cc1 |  | active: 4.47 µM
O=C(CSc1nc(-c2ccc(F)cc2)nc2c1Cc1ccccc1O2)Nc1ccc(C(=O)O)cc1 |  | active: 8.91 µM
Cc1cccc(C#Cc2ccccc2)n1 | inactive: 2.66% | 
N[C@H](C(=O)O)c1cc(O)cc(O)c1 |  | inactive
COc1c(-c2ccc(O)c(O)c2)oc2cc(O)cc(O)c2c1=O | inactive: 4.41% | 
N[C@]1(C(=O)O)CCc2cc(C(=O)O)ccc21 | inactive: -9.36% | 
Cc1ccc(Cl)c(Nc2ccccc2C(=O)O)c1Cl |  | inactive
Cc1cc(/C=C/c2ccc3cc(N(C)C)ccc3[n+]2C)c(C)n1-c1ccccc1 | inactive: -23.2% | 
CCn1nc(C(=O)O)c(=O)c2cc3c(cc21)OCO3 |  | inactive

Structure (SMILES) | activity change, negative = inhibition | Potency
COc1cccc(=O)c2c(C)n(CC(=O)c3ccccc3)c(C)c12 |  | active: 25.1 µM
C[C@]12CC[C@@H]3c4ccc(O)cc4CC[C@H]3[C@@H]1CC[C@H]2O | inactive: -0.226% | 
Fc1cccc(/C=N/N=C/c2cccc(F)c2)c1 | inactive: -3.16% | 
CN(C)CCO[C@](C)(c1ccccc1)c1ccccn1 | inactive: 3.42% [at 21.4 µM] | 
Cc1ccc(/C=c2\sc3nc(-c4ccco4)nn3c2=O)o1 |  | active: 25.1 µM
O=C(CCl)Nc1ccccc1Sc1ccc(Cl)cc1 |  | active: 15.8 µM
CN(C)c1ccc(/C=C2/C(=O)Nc3ccccc32)cc1 | inactive: -9.29% | 
C=C[C@@]1(C)CC(=O)[C@]2(O)[C@@]3(C)[C@H](O)CCC(C)(C)[C@@H]3[C@H](O)[C@H](OC(C)=O)[C@@]2(C)O1 | inactive: -0.509% | 
CC12CCC3c4ccc(O)cc4CCC3C1CCC2O (configuration not stated) | inactive: -3.21% | 
Cn1c(SCC(=O)c2cc(Cl)c(Cl)s2)nnc1-c1ccco1 |  | active: 12.6 µM
O=C(O)CSc1cc(C(=O)c2ccccc2O)cn2c(=O)c3c(-c4ccccc4)csc3nc12 |  | active: 28.2 µM
Cc1cc(-c2nc3c4c5c(sc4[nH]c(=O)n3n2)CCC5)c(C)o1 |  | active: 14.1 µM
Oc1cc2c(c(Cl)c1O)CCNC[C@H]2c1ccccc1 | inactive: -6.72% | 
O=C1NCN(c2ccccc2)C12CCN(CCCC(c1ccc(F)cc1)c1ccc(F)cc1)CC2 |  | inactive
C[C@@]12C(=O)OC(=O)[C@]1(C)[C@H]1CC[C@@H]2O1 | inactive: 1.74% [at 21.4 µM] | 
O=C(O)CCC(=O)N1CCC[C@H]1C(=O)O | inactive: 1.51% | 
COc1cc(-c2nnc(SCc3cc(=O)oc4cc(O)c(O)cc34)o2)cc(OC)c1OC |  | active: 10 µM
O=[N+]([O-])c1cccc2c(Br)[nH]nc12 |  | inactive
COc1ccc2nc(-c3ccco3)c(-c3ccco3)nc2c1 |  | active: 12.6 µM
CC(=O)SCC[N+](C)(C)C | inactive: -1.24% | 
Nc1ccc(-c2ccc3ccccc3n2)cc1 | inactive: -4.86% | 
CNC(=O)COC(=O)c1cc(-c2ccco2)nc2ccccc12 |  | active: 15.8 µM
CCOc1cccc(CNc2ccc(O)cc2)c1OCc1ccccc1Cl | inactive: -10.2% | 
COc1cc(-c2ccc(N=Nc3ccc4c(S(=O)(=O)O)cc(S(=O)(=O)O)c(N)c4c3O)c(OC)c2)ccc1N=Nc1ccc2c(S(=O)(=O)O)cc(S(=O)(=O)O)c(N)c2c1O | inactive: -4% [at 21.4 µM] | 
Cc1ccc(N=Cc2cc(Cc3ccccc3Cl)cc([N+](=O)[O-])c2O)c(O)c1 |  | active: 15.8 µM

Structure (SMILES) | activity change, negative = inhibition | Potency
O=C(CCCCCCCC(=O)NNC(=O)Nc1ccccc1)NNC(=O)Nc1ccccc1 |  | active: 28.2 µM
COc1cc(Cc2cnc(N)nc2N)cc(OC)c1OC |  | inactive
CCCNC(=O)c1c(N)n(-c2ccc(S(N)(=O)=O)cc2)c2nc3ccccc3nc12 |  | active: 20 µM
CN1CCN2c3ccccc3Cc3ccccc3[C@@H]2C1 |  | inactive
N#CC(=C(/N)Sc1ccccc1N)/C(C#N)=C(/N)Sc1ccccc1N | inactive: -7.96% | 
NS(=O)(=O)c1cccc2c1c([N+](=O)[O-])cc1nc(O)c(O)nc12 | inactive: -8.69% | 
CCc1cc(=O)oc2cc(C)c(CN3CCCCC3)c(O)c12 |  | active: 17.8 µM
O=C1N=C(O)CN1/N=C\c1ccc(-c2ccc([N+](=O)[O-])cc2)o1 |  | inactive
Cc1[nH]c(=O)c(C#N)cc1-c1ccncc1 |  | inactive
C[C@@]12C(=O)OC(=O)[C@@]1(C)C1CCC2O1 | inactive: 1.9% | 
O=C(COC(=O)C1(c2ccc(F)cc2)CCCC1)NCc1ccco1 |  | active: 22.4 µM
CC1(C)S[C@H]2[C@@H](NC(=O)C(N)c3ccccc3)C(=O)N2[C@H]1C(=O)O (some centres not stated) | inactive: -1.1% | 
O=[N+]([O-])c1cc(Br)cc(C=Nc2ccc3c(c2)OCO3)c1O |  | active: 14.1 µM
C#CCOCCOCCOCCNc1nc(N2CCN(C(=O)[C@H](Cc3cc4ccccc4[nH]3)n3cc([C@@H](N)CC(C)C)nn3)CC2)nc(N2CCN(C(=O)[C@H](Cc3cc4ccccc4[nH]3)n3cc([C@@H](N)CC(C)C)nn3)CC2)n1 |  | active: 22.4 µM
Cn1c2ccccc2c(=O)n2c(=O)c3ccccc3cc12 |  | active: 25.1 µM
C[n+]1cccc2cccc([O-])c21 |  | active: 25.1 µM
S=C(Nc1ccccc1)Nc1nccs1 | inactive: 7.46% | 
CC(=O)NCCc1c[nH]c2ccc(O)cc12 | inactive: 4.98% | 
C[C@@]12C=CC(=O)C=C1CCC1C3CC(O)[C@@](O)(C(=O)CO)[C@]3(C)CC(O)[C@]12F (some centres not stated) | inactive: 2.52% | 
CN1CCc2ccccc2Cc2[nH]c3ccccc3c2CC1 | inactive: -2.52% | 
O.O.O.O.O.O.O.O=S(=O)([O-])[O-].[Co+2] |  | active: 8.91 µM
COc1cc(/C=C2\SC(=O)N(CC(=O)Nc3ccc(C)cc3)C2=O)cc(Cl)c1OCC(=O)O |  | active: 10 µM
Cc1ccc(C2=NC(=O)/C(=C/c3cc(O)c(O)c(Br)c3)S2)cc1 |  | active: 3.55 µM
O=C(c1ccccc1)c1ccc2nc(-c3ccco3)c(-c3ccco3)nc2c1 |  | active: 14.1 µM
N[C@H](CO)C(=O)O | inactive: -14% | 

Structure (SMILES) | activity change, negative = inhibition | Potency
Cc1c(CC(=O)N2CCN(C(=O)C3COc4ccccc4O3)CC2)c(=O)oc2c(O)c(O)ccc12 (configuration not stated) |  | active: 8.91 µM
CC(C)NC[C@H](O)COc1ccc(CC(N)=O)cc1 |  | inactive
COC(=O)C1C2CC3c4[nH]c5cc(OC)ccc5c4CCN3CC2CC(OC(=O)c2cc(OC)c(OC)c(OC)c2)C1OC (configuration not stated) |  | inactive
CO[C@@]1(NC(=O)CSCC#N)C(=O)N2C(C(=O)O)=C(CSc3nnnn3C)CS[C@@H]21 | inactive: -6.34% | 
CCC(NC(C)C)C(O)c1ccc(O)c(O)c1 (configuration not stated) | inactive: -0.345% | 
O=C(O)c1ccccc1Nc1ccccc1 | inactive: 7.51% | 
CC1(C)C(=O)NC2=C1C(=O)C(=O)c1ccccc12 |  | active: 2.82 µM and active: 2.51 µM
NC12CC3CC(CC(C3)C1)C2 |  | inactive
COC(=O)[C@H]1[C@@H]2C[C@H]3c4[nH]c5ccccc5c4CCN3C[C@@H]2CC[C@@H]1O | inactive: 0.36% | 
O=C(COC(=O)c1cc2c(s1)CCC2)Nc1ccc(F)cc1 |  | active: 15.8 µM
O=C(O)c1c(Cl)c(Cl)c(Cl)c(Cl)c1-c1c2cc(I)c(=O)c(I)c-2oc2c(I)c(O)c(I)cc12 |  | active: 11.2 µM and active: 14.1 µM
N[C@@H](C(=O)N[C@@H]1C(=O)N2C(C(=O)O)=C(Cl)CS[C@H]12)c1ccccc1 |  | inactive
CN1\C(=C/C=C/C=C/C=[N+](C)C)C(C)(C)c2ccccc21 |  | active: 28.2 µM
Cc1cc(=O)[nH]c2c(N=Nc3ccc(O)cc3)c(N)nn12 |  | active: 15.8 µM
NCCS(=O)O | inactive: 1.98% | 
CNc1ncnc2c1ncn2[C@H]1C[C@H](OP(=O)(O)O)[C@H](COP(=O)(O)O)O1 | inactive: 3.63% | 
CCCCC1=CC2=C(c3ccco3)C(=O)C(C)(OC(=O)c3ccc(OC)cc3)C(=O)C2=CN1Cc1ccco1 (configuration not stated) | inactive: -1.78% [at 12.4 µM] | 
CC(C)NC[C@H](O)c1ccc(O)c(O)c1 |  | inactive
CN(C)CCOC(=O)COc1ccc(Cl)cc1 |  | inactive
COc1ccc(Nc2nc(N)c3cc(OC)c(OC)cc3n2)cc1 |  | active: 15.8 µM
C[C@H](N=C(NC#N)Nc1ccncc1)C(C)(C)C |  | inactive
OC(CCN1CCCCC1)(c1ccccc1)C1CCCCC1 (configuration not stated) |  | inactive
